Reference: PubChem BioAssay AID1671194 (National Center for Advancing Translational Sciences (NCATS), 2021)
Values joined by “and” are separate entries in the source; they are usually repeats but may differ in a detail not shown here. Identical values can stand only once. Among all 140,000 compounds or so, about 240 (0.17%) were called active. This list was built around the results that the source calls inconclusive (neither active nor inactive); the mix of calls is not that of the screen. Calls follow the shape of the dose curve; as a rule, active = well fitted inhibition curve with a large enough effect; inconclusive = small, poorly fitted or top-dose-only effect; inactive = no such curve, though single readings can be large or run the other way. A potency beside an inconclusive call is a rough fit, not a confirmed value.

experiment: Primary qHTS assay for inhibitors of alpha-synuclein gene (SNCA) expression; settings: HEK-293 SNCA-luciferase knock-in, luminescence, 24 h; activity change, negative = inhibition: at 57.2 µM (top of the series) unless noted; also: nearly all actives have a fitted effect of over 45% in size;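 as to activity change, negative = inhibition: plate controls were DMSO cells for no effect and cell-free wells for full effect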
Potency is read from the fitted curve at half-maximal effect; tags tell the direction and shape of the fitted curve.

SMILES | Potency | activity change, negative = inhibition
CCCCOc1ccc(C(=O)Nc2ccc3c(c2)N(C(C)=O)CCC3)cc1 | inconclusive: 3.55 µM [inhibitor, full curve, poor fit] | –
O=C(Nc1ccccc1)Nc1ccc([C@H]2OCC(=O)N(Cc3ccncc3)[C@@H]2CO)cc1 | inconclusive: 7.08 µM [inhibitor, single point] | –
O=S(=O)(c1ccc(Cl)cc1)c1nc(-c2ccccc2F)oc1NCc1ccccc1 | inconclusive: 0.631 µM [inhibitor, partial curve, poor fit] | –
COc1ccccc1-c1cn2c(n1)CO[C@@H](CNCc1ccc(F)c(F)c1)C2 | – | inactive: -25.7% [at 87.6 µM]
O=C(c1ccco1)N1CCC[C@H](n2c(=O)n(CC3CC3)c3cccnc32)C1 | – | inactive: 8.01%
Cc1ccc(C(=O)N2CCC3(CC2)CCN(CCc2ccccc2)c2ccccc2O3)cc1 | – | inactive: 5.76%
O=C(Nc1nc2c(F)cccc2s1)c1ccc2c(c1)OCCO2 | inconclusive: 11.2 µM [inhibitor, partial curve, poor fit] | –
COc1ccccc1-c1cccc(CN2CCCC(C(=O)NCc3ccccc3)C2)c1 (stereo unspecified) | – | inactive: -4.82%
O=C(c1ccc(F)cc1)N1CCC2(CC1)CCN(Cc1cccs1)c1ccccc1O2 | inconclusive: 10 µM [inhibitor, partial curve, poor fit] | –
COc1ccc(OC)c(CC2C(=O)Nc3ccc(Br)cc32)c1 (stereo unspecified) | inconclusive: 20 µM [inhibitor, partial curve, poor fit] | –
N#CC1CCN(C(=O)c2c[nH]c3ncccc23)CC1 | inconclusive: 22.4 µM [inhibitor, partial curve, poor fit] | –
COCC(=O)NCc1cc2n(n1)CCCN(Cc1cc3ccccc3s1)C2 | – | inactive: 1.41%
CCOc1ccc(CNC(=O)C2=Cc3cccc(OC)c3OC2)cc1 | inconclusive: 39.8 µM [inhibitor, single point] | –
COCCN1C(=O)c2cccn2CC1CNC(=O)c1ccc(-n2c(C)ccc2C)cc1 (stereo unspecified) | – | inactive: -10.2%
CCOc1ccccc1CNC(=O)c1oc2c(c1C)-c1nn(Cc3cccc(Cl)c3)cc1CC2 | inconclusive: 39.8 µM [inhibitor, single point] | –
COc1ccc(C(=O)N[C@@H]2CN(Cc3ccccc3)C[C@H]2CN(C)C)cc1 | inconclusive: 4.47 µM [inhibitor, full curve, poor fit] | –
CN1CCN(c2ccc(-c3noc([C@@H]4CCCN4Cc4ccccc4)n3)cn2)CC1 | – | inactive: -12.8% [at 87.6 µM]
O=C(CN1C(=O)C2(SCC(=O)N2c2ccc(F)c(F)c2)c2ccccc21)Nc1cccc(Cl)c1 (stereo unspecified) | inconclusive: 39.8 µM [inhibitor, single point] | –
COc1ccc(C(=O)N2CCC(N3C(=O)[C@H](OC)[C@@H]3c3ccncc3)CC2)c(OC)c1 | – | inactive: 16.1%
COc1c(C)cc(NS(=O)(=O)c2ccc3c(c2)OCCO3)cc1C | inconclusive: 14.1 µM [inhibitor, partial curve, poor fit] | –
COCCNc1ncccc1-c1noc([C@@H]2CCCN2Cc2ccccn2)n1 | inconclusive: 3.16 µM [inhibitor, full curve, poor fit] | –

SMILES | Potency | activity change, negative = inhibition
Cc1nc(N2CCN(C(=O)COc3ccc(F)cc3)CC2)cc(C(F)(F)F)n1 | inconclusive: 20 µM [inhibitor, single point] | –
CCOC(=O)c1cnc2ccc(OC)cc2c1Nc1cccc(C(C)=O)c1 | inconclusive: 7.08 µM [inhibitor, single point] | –
CC(C)(C)CN1CCOC[C@H]1c1ncc(-c2ccc(F)cc2F)[nH]1 | inconclusive: 35.5 µM [inhibitor, single point] | –
O=C(c1cc(-c2ccccc2)n[nH]1)N1CCc2c(nc(-c3ccccc3)[nH]c2=O)C1 | inconclusive: 3.16 µM [inhibitor, single point] | –
CC(C)CN1CCN(C(=O)C2CCCN(S(C)(=O)=O)CCC(=O)NCC2)CC1 (stereo unspecified) | inconclusive: 8.91 µM [inhibitor, single point] | –
CCN(CC)C(CNc1ncncn1)c1ccco1 (stereo unspecified) | inconclusive: 10 µM [inhibitor, partial curve, poor fit] | –
COc1ccccc1CNC(=O)C1CCN(C(=O)c2ncn3c2COC(c2ccccc2)C3)CC1 (stereo unspecified) | – | inactive: 72%
COc1ccccc1Nc1ccnc(N2CCC(C(=O)NCCCc3ccccc3)CC2)n1 | inconclusive: 20 µM [inhibitor, single point] | –
O=C(c1cc(F)ccc1F)N1CCN(c2cc(-c3ccc(Cl)cc3)[nH]n2)CC1 | inconclusive: 17.8 µM [inhibitor, single point] | –
O=C(NC1CCN(Cc2cccc(-c3cccs3)c2)CC1)c1ccccc1F | inactive and inconclusive: 31.6 µM [inhibitor, single point] | –
CC(C)CCN1CCc2c(n(CCOc3ccccc3)n(-c3ccccc3)c2=O)C1 | inconclusive: 56.2 µM [inhibitor, single point] | –
COc1ccc(-n2c(-c3ccco3)nc3c(cnn3-c3ccccc3Cl)c2=O)cc1 | inconclusive: 14.1 µM [inhibitor, single point] | –
COc1ccc(-c2ccnc(N[C@H]3CO[C@H]4[C@@H]3OC[C@@H]4NC(=O)CCCC(=O)O)n2)cc1 | – | inactive: -11.7%
Cc1ccc(Cl)cc1NC(=O)c1sc(-n2nc(C)c(Cc3ccc4c(c3)OCO4)c2C)nc1C | inconclusive: 7.08 µM [inhibitor, single point] | –
COc1ccc(C(=O)Nc2ccc([C@@H](O)[C@H]3COCC(=O)N3Cc3ccc(F)cc3)cc2)cc1OC | – | inactive: 10.4%
COc1ccc(C)cc1NC(=O)CC1NCCNC1=O (stereo unspecified) | inconclusive: 10 µM [inhibitor, full curve, poor fit] | –
Cc1noc(C)c1S(=O)(=O)N1CCC(Cc2nc(-c3ccncc3)n[nH]2)C1 (stereo unspecified) | inconclusive: 11.2 µM [inhibitor, partial curve, poor fit] | –
CCCNC(=O)[C@@H]1Cc2cn(Cc3nccn3C)c3cccc(c23)[C@H](CC(C)C)N1 | – | inactive: -21.1% [at 87.6 µM]
COc1ccccc1-c1noc(-c2ccc(NC3CCCC3)c([N+](=O)[O-])c2)n1 | – | inactive: 143%
COc1ccc(C2Cn3nnc(C(=O)N4CCN(C(=O)c5ccccc5)CC4)c3CO2)cc1 (stereo unspecified) | inconclusive: 14.1 µM [inhibitor, partial curve, poor fit] | –
